Some of the results follow. For part of these data: At the low end of the ranking, values are background and their order means little. For part of these data: The protein was read in a cell extract, so binding may be indirect.
How the values were obtained:
PU.1 (IVT) = PU.1 (IVT) (UniProt P17947); experiment: protein-binding microarray (PBM); settings: 20 mM HEPES pH 7.9, 100 mM NaCl, 1 mM DTT, 0.2 mg/mL BSA, 0.02% Triton X-100, 2% milk, 0.4 mg/mL salmon testes DNA; 1 h; temperature not stated; high values mean tight binding; double strand, one strand shown; sequences stand for … in GCCTAGCAC…GTGCTAGGTCTTGATTCGCTTGACGCTGCTG
[1] = target: PU.1 (endogenous, THP-1 nuclear extract) (UniProt P17947); experiment: nuclear extract protein-binding microarray (nextPBM); settings: 20 mM HEPES pH 7.9, 100 mM NaCl, 1 mM DTT, 0.2 mg/mL BSA, 0.02% Triton X-100, 2% milk, 0.4 mg/mL salmon testes DNA; 1 h; temperature not stated; high values mean tight binding; double strand, one strand shown; sequences stand for … in GCCTAGCAC…GTGCTAGGTCTTGATTCGCTTGACGCTGCTG
[2] = target: T1, FLI1 (endogenous, THP-1 nuclear extract) (UniProt Q01543); experiment: as above; settings: 20 mM HEPES pH 7.9, 100 mM NaCl, 1 mM DTT, 0.2 mg/mL BSA, 0.02% Triton X-100, 2% milk, 0.4 mg/mL salmon testes DNA; 1 h; temperature not stated; high values mean tight binding; double strand, one strand shown; sequences stand for … in GCCTAGCAC…GTGCTAGGTCTTGATTCGCTTGACGCTGCTG
T1 sequence: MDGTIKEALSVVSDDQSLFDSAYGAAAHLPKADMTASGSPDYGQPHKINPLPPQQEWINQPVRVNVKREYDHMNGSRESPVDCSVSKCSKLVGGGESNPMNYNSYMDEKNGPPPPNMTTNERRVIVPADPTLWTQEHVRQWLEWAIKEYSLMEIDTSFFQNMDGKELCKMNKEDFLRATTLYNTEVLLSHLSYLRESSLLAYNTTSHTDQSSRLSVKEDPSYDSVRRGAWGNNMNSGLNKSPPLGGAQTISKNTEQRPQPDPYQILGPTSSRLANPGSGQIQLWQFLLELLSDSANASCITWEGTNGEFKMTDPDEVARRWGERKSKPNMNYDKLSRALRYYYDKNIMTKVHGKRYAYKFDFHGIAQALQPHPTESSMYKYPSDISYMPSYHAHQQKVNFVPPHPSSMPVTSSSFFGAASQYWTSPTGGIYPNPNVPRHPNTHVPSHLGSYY

[3] = target: PU.1 (endogenous, THP-1 nuclear extract) (UniProt P17947); experiment: nextPBM; settings: 20 mM HEPES pH 7.9, 100 mM NaCl, 1 mM DTT, 0.2 mg/mL BSA, 0.02% Triton X-100, 2% milk, 0.4 mg/mL salmon testes DNA, 1 h; temperature not stated; double strand, one strand shown; sequences stand for … in GCCTAGCAC…GTGCTAGGTCTTGATTCGCTTGACGCTGCTG
[4] = target: T2, IRF8 (endogenous, THP-1 nuclear extract) (UniProt Q02556); experiment: nextPBM; settings: 20 mM HEPES pH 7.9, 100 mM NaCl, 1 mM DTT, 0.2 mg/mL BSA, 0.02% Triton X-100, 2% milk, 0.4 mg/mL salmon testes DNA, 1 h; temperature not stated; double strand, one strand shown; sequences stand for … in GCCTAGCAC…GTGCTAGGTCTTGATTCGCTTGACGCTGCTG
T2 sequence: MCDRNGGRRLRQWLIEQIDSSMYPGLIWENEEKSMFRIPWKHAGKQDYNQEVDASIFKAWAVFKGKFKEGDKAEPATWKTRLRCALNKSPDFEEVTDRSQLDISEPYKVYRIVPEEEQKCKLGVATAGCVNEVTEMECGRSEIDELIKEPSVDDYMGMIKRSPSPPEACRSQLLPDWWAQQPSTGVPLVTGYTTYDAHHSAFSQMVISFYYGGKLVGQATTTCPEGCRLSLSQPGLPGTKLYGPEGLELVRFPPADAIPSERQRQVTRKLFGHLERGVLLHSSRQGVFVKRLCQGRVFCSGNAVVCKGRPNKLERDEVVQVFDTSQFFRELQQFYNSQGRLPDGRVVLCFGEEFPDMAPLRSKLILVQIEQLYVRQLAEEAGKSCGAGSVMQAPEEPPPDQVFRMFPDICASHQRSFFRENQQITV

[5] = target: T1, FLI1 (endogenous, THP-1 nuclear extract); experiment: nextPBM; settings: 20 mM HEPES pH 7.9, 100 mM NaCl, 1 mM DTT, 0.2 mg/mL BSA, 0.02% Triton X-100, 2% milk, 0.4 mg/mL salmon testes DNA, 1 h; temperature not stated; double strand, one strand shown; sequences stand for … in GCCTAGCAC…GTGCTAGGTCTTGATTCGCTTGACGCTGCTG

ACAAACAGGAACTGTGCCCC was tested, and the binding signal (PU.1 (IVT)) was 2.92 z-score, the binding signal [1] was 3.35 z-score and the binding signal [2] was 1.69 z-score.
Work on ACAAAAAGGAACTATGCCCC yielded a binding signal (PU.1 (IVT)) of 2.55 z-score, a binding signal [1] of 2.05 z-score and a binding signal [2] of 0.635 z-score.
CATAAGAGGAAGTCCTCTGT was tested, and the binding signal (PU.1 (IVT)) was 5.75 z-score, the binding signal [1] was 6.51 z-score and the binding signal [2] was 3.15 z-score.
GAAAAGAGGAAGTCATACTA was tested, and the binding signal (PU.1 (IVT)) was 8.06 z-score, the binding signal [1] was 7.39 z-score and the binding signal [2] was 4.04 z-score.
For AAATAGAGGAAGTCAGAGAG, the binding signal [3] was 6.77 z-score, the binding signal (PU.1 (IVT)) was 6.22 z-score and the binding signal [1] was 6.71 z-score. For the same sequence, the binding signal [2] was 3.05 z-score.
ATAAGGAGGAAGTGAGACAG gave a binding signal [4] of -0.052 z-score, a binding signal [3] of 4.74 z-score and a binding signal (PU.1 (IVT)) of 4.54 z-score. It also gave a binding signal [1] of 5.01 z-score and a binding signal [2] of 2.72 z-score.
In the case of GATATGAGGAAGTCCTCTGT, the binding signal (PU.1 (IVT)) is reported as 5.68 z-score, the binding signal [1] is reported as 6.37 z-score and the binding signal [2] is reported as 2.75 z-score.
GAAAACAGGAAGTGGACAAC gave a binding signal [3] of 7.79 z-score and a binding signal [2] of 5.2 z-score.
In the case of CCTGAGGGGAAGTGGGTCAG, the binding signal (PU.1 (IVT)) is reported as 3.52 z-score, the binding signal [1] is reported as 3.62 z-score and the binding signal [2] is reported as 2.27 z-score.
Work on TAAATGAGGAAGTCCTAGTG yielded a binding signal (PU.1 (IVT)) of 7.77 z-score, a binding signal [1] of 7.2 z-score and a binding signal [2] of 3.69 z-score.
AACTAGAGGAAGTGAAGGAA gave a binding signal (PU.1 (IVT)) of 4.88 z-score, a binding signal [1] of 4.66 z-score and a binding signal [2] of 3.59 z-score.
For GAAAAGGGGAAGTCAAGATT, the binding signal (PU.1 (IVT)) was 7.55 z-score, the binding signal [1] was 7.14 z-score and the binding signal [2] was 3 z-score.
For GAAAAGAGGAAGTCAGATTG, the binding signal [4] was 0.241 z-score, the binding signal [3] was 8.66 z-score and the binding signal [2] was 3.77 z-score.
GAAAAGGGGAAGTGTATTCC gave a binding signal [5] of 3.67 z-score, a binding signal [3] of 7.97 z-score and a binding signal [2] of 3.67 z-score.
AGAAAGAGGAAGTTGGCTCT was tested, and the binding signal (PU.1 (IVT)) was 8.56 z-score, the binding signal [1] was 7.36 z-score and the binding signal [2] was 4.1 z-score.
AGAGAGAGGAAGTCCCAAAG gave a binding signal (PU.1 (IVT)) of 3.45 z-score, a binding signal [1] of 3.65 z-score and a binding signal [2] of 2.11 z-score.
For GAAATCAGGAAGTGAAGATG, the binding signal (PU.1 (IVT)) was 5.85 z-score, the binding signal [1] was 6.48 z-score and the binding signal [2] was 3.43 z-score.
For ACTTTAAGGAAGTGAGATTT, the binding signal (PU.1 (IVT)) was 4.66 z-score, the binding signal [1] was 5.06 z-score and the binding signal [2] was 1.84 z-score.
Work on AAAAAAGGGAAGTGGATGCT yielded a binding signal (PU.1 (IVT)) of 7.67 z-score, a binding signal [1] of 7.06 z-score and a binding signal [2] of 3.48 z-score.
ATAAGGAGGAAGTGGCTGAA was tested, and the binding signal [4] was -0.182 z-score, the binding signal [3] was 5.2 z-score and the binding signal (PU.1 (IVT)) was 5.13 z-score. The binding signal [2] was 3.22 z-score.
In the case of GAAAAGAGGAAGTGGAAACA, the binding signal [3] is reported as 8.74 z-score and the binding signal [2] is reported as 4.09 z-score.
In the case of AGGAGGAGGAAGTGGAGAGT, the binding signal (PU.1 (IVT)) is reported as 4.5 z-score, the binding signal [1] is reported as 4.43 z-score and the binding signal [2] is reported as 2.53 z-score.
GAAGAGAGGAAGTGAAATTA showed a binding signal [3] of 5.33 z-score, a binding signal (PU.1 (IVT)) of 5.03 z-score and a binding signal [1] of 5.05 z-score. The binding signal [2] was 3.29 z-score.
AAAAAAAGGAACTGGCTCGA was tested, and the binding signal (PU.1 (IVT)) was 4.34 z-score, the binding signal [1] was 4.32 z-score and the binding signal [2] was 1.29 z-score.
In the case of CCAAACAGGAAGTGCTATTT, the binding signal (PU.1 (IVT)) is reported as 5.67 z-score, the binding signal [1] is reported as 6.3 z-score and the binding signal [2] is reported as 5.69 z-score.
Sequence CAAATGAGGAACTGATGCAG has a binding signal (PU.1 (IVT)) of 5.72 z-score, a binding signal [1] of 6.2 z-score and a binding signal [2] of 2.07 z-score.

Source: article PMC6451091
